As a reminder, the EC50 is the concentration at which the effect is half-maximal.

The labels stand for the following.
T1: Mouse GLP-1R (Mus musculus, UniProt O35659)
T1 construct: expressed in transfected cells; host or cells: HEK-293
T1 sequence (O35659 22-463): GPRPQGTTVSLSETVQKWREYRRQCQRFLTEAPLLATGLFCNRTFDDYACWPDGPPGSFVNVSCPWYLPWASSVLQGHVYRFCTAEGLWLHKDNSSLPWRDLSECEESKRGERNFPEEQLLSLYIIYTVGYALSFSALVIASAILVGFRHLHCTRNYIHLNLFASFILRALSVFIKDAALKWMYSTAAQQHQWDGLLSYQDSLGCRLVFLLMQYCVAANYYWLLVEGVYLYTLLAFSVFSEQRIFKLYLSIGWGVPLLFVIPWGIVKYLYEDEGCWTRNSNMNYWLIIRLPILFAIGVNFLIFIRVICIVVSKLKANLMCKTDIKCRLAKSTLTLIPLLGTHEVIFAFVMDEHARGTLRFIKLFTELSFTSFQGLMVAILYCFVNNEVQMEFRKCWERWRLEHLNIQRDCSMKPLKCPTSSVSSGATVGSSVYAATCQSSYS

B1: 53 (protein)
chain: HGEGTFTSDKSKQLDEQRAKEFIEWLKAGGHPSGKPPPKGGGGGGGSGGGGSGGGGSA[… human IgG4 Fc with changes …]GGGSGSAHPIPDSSPLLQFGGQVRQRYLYTDDACQTEAHLEIREDGTVGGAADQSPESLLQLKALKPGVIQILGVKTSRFLCQRPDGALYGSLHFDPEACSFRELLLEDGYNVYQSEAHGLPLHLPGCKSPHRDPAPRGPARFLPLPGLPPAPPEPPGILAPQPPDVGSSDPLSMVGSQGRSPSYAS
modifications: Fusion Protein
B2: 63 (protein)
chain: YGEGTFTSDKSKQLEKRLAHLFIEWLIKGGHSSGKPPPKGGGGGGGSGGGGSGGGGSA[… human IgG4 Fc with changes …]GGGSGSAHPIPDSSPLLQFGGQVRQRYLYTDDACQTEAHLEIREDGTVGGAADQSPESLLQLKALKPGVIQILGVKTSRFLCQRPDGALYGSLHFDPEACSFRELLLEDGYNVYQSEAHGLPLHLPGCKSPHRDPAPRGPARFLPLPGLPPAPPEPPGILAPQPPDVGSSDPLSMVGSQGRSPSYAS
modifications: Fusion Protein
B3: 60 (protein)
chain: YGEGTFTSDKSKQLEKRLVRLFIEWLIAGGHSSGKPPPKGGGGGGGSGGGGSGGGGSA[… human IgG4 Fc with changes …]GGGSGSAHPIPDSSPLLQFGGQVRQRYLYTDDACQTEAHLEIREDGTVGGAADQSPESLLQLKALKPGVIQILGVKTSRFLCQRPDGALYGSLHFDPEACSFRELLLEDGYNVYQSEAHGLPLHLPGCKSPHRDPAPRGPARFLPLPGLPPAPPEPPGILAPQPPDVGSSDPLSMVGSQGRSPSYAS
modifications: Fusion Protein
B4: 59 (protein)
chain: YGEGTFTSDKSKLLEKRLAHLFIEWLIAGGHSSGKPPPKGGGGGGGSGGGGSGGGGSA[… human IgG4 Fc with changes …]GGGSGSAHPIPDSSPLLQFGGQVRQRYLYTDDACQTEAHLEIREDGTVGGAADQSPESLLQLKALKPGVIQILGVKTSRFLCQRPDGALYGSLHFDPEACSFRELLLEDGYNVYQSEAHGLPLHLPGCKSPHRDPAPRGPARFLPLPGLPPAPPEPPGILAPQPPDVGSSDPLSMVGSQGRSPSYAS
modifications: Fusion Protein
B5: 61 (protein)
chain: YGEGTFTSDKSKQLEKRLAHLFIEWLIAGGHSSGKPPPKGGGGGGGSGGGGSGGGGSA[… human IgG4 Fc with changes …]GGGSGSAHPIPDSSPLLQFGGQVRQRYLYTDDACQTEAHLEIREDGTVGGAADQSPESLLQLKALKPGVIQILGVKTSRFLCQRPDGALYGSLHFDPEACSFRELLLEDGYNVYQSEAHGLPLHLPGCKSPHRDPAPRGPARFLPLPGLPPAPPEPPGILAPQPPDVGSSDPLSMVGSQGRSPSYAS
modifications: Fusion Protein
B6: 65 (protein)
chain: HGEGTFTSDKSKQLAKRLVRLFIEWLIKGGHSSGKPPPKGGGGGGGSGGGGSGGGGSA[… human IgG4 Fc with changes …]GGGSGSAHPIPDSSPLLQFGGQVRQRYLYTDDACQTEAHLEIREDGTVGGAADQSPESLLQLKALKPGVIQILGVKTSRFLCQRPDGALYGSLHFDPEACSFRELLLEDGYNVYQSEAHGLPLHLPGCKSPHRDPAPRGPARFLPLPGLPPAPPEPPGILAPQPPDVGSSDPLSMVGSQGRSPSYAS
modifications: Fusion Protein
B7: 57 (protein)
chain: YGEGTFTSDKSQLLEKRLAHLFIEWLIAGGHSSGKPPPKGGGGGGGSGGGGSGGGGSA[… human IgG4 Fc with changes …]GGGSGSAHPIPDSSPLLQFGGQVRQRYLYTDDACQTEAHLEIREDGTVGGAADQSPESLLQLKALKPGVIQILGVKTSRFLCQRPDGALYGSLHFDPEACSFRELLLEDGYNVYQSEAHGLPLHLPGCKSPHRDPAPRGPARFLPLPGLPPAPPEPPGILAPQPPDVGSSDPLSMVGSQGRSPSYAS
modifications: Fusion Protein
B8: 58 (protein)
chain: YGEGTFTSDKSKLLEKRLVRLFIEWLIAGGHSSGKPPPKGGGGGGGSGGGGSGGGGSA[… human IgG4 Fc with changes …]GGGSGSAHPIPDSSPLLQFGGQVRQRYLYTDDACQTEAHLEIREDGTVGGAADQSPESLLQLKALKPGVIQILGVKTSRFLCQRPDGALYGSLHFDPEACSFRELLLEDGYNVYQSEAHGLPLHLPGCKSPHRDPAPRGPARFLPLPGLPPAPPEPPGILAPQPPDVGSSDPLSMVGSQGRSPSYAS
modifications: Fusion Protein
B9: 62 (protein)
chain: YGEGTFTSDKSKQLEKRLVRLFIEWLIKGGHSSGKPPPKGGGGGGGSGGGGSGGGGSA[… human IgG4 Fc with changes …]GGGSGSAHPIPDSSPLLQFGGQVRQRYLYTDDACQTEAHLEIREDGTVGGAADQSPESLLQLKALKPGVIQILGVKTSRFLCQRPDGALYGSLHFDPEACSFRELLLEDGYNVYQSEAHGLPLHLPGCKSPHRDPAPRGPARFLPLPGLPPAPPEPPGILAPQPPDVGSSDPLSMVGSQGRSPSYAS
modifications: Fusion Protein
B10: 64 (protein)
chain: HTEGTFTSDKSKQLEKRLVRLFIEWLIKGGHSSGKPPPKGGGGGGGSGGGGSGGGGSA[… human IgG4 Fc with changes …]GGGSGSAHPIPDSSPLLQFGGQVRQRYLYTDDACQTEAHLEIREDGTVGGAADQSPESLLQLKALKPGVIQILGVKTSRFLCQRPDGALYGSLHFDPEACSFRELLLEDGYNVYQSEAHGLPLHLPGCKSPHRDPAPRGPARFLPLPGLPPAPPEPPGILAPQPPDVGSSDPLSMVGSQGRSPSYAS
modifications: Fusion Protein
B11: 54 (protein)
chain: GHGEGTFTSDKSKQLEEEAVRLFIEWLKAGGHPSGKPPPKGGGGGGGSGGGGSGGGGSA[… human IgG4 Fc with changes …]GGGSGSAHPIPDSSPLLQFGGQVRQRYLYTDDACQTEAHLEIREDGTVGGAADQSPESLLQLKALKPGVIQILGVKTSRFLCQRPDGALYGSLHFDPEACSFRELLLEDGYNVYQSEAHGLPLHLPGCKSPHRDPAPRGPARFLPLPGLPPAPPEPPGILAPQPPDVGSSDPLSMVGSQGRSPSYAS
modifications: Fusion Protein

For the first assay, the target named is T2, Human GLP-1R (Homo sapiens, UniProt P43220).
T2 construct: expressed in transfected cells; host or cells: HEK-293
T2 sequence (P43220 24-463): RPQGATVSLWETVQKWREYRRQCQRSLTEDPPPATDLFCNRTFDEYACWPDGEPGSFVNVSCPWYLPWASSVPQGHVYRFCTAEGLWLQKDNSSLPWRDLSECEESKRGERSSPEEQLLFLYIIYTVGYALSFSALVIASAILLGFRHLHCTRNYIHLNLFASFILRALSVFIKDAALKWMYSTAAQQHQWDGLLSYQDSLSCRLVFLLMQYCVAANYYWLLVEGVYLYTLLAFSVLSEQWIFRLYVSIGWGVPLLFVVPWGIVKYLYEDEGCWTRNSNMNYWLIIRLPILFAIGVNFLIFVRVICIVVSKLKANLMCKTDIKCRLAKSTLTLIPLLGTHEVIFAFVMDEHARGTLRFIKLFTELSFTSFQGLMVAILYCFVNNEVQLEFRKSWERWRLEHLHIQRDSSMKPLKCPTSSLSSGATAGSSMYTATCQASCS
The assay can be described thus: HTRF cAMP assay in HEK-293 cells, human GLP-1R. Format: cell-based. On the technique in general: In TR-FRET formats the signal depends on donor and acceptor labels being close together.
The molecule B1 gave an EC50 of 0.0284 nM.

In the case of B2, the EC50 came out at 0.0954 nM.

Molecule B3 gave an EC50 of 0.0225 nM.

Consider B4, for which the EC50 is 0.0136 nM.

Consider B5, for which the EC50 came out at 0.0683 nM.

The molecule B6 registered an EC50 of 0.0165 nM.

As for B7, the EC50 was found to be 0.0211 nM.

B8 showed an EC50 of 0.00938 nM.

As to B9, the EC50 was determined as 0.0203 nM.

Consider B10, for which the EC50 was 0.00909 nM.

Regarding B11, the response was half-maximal at 0.107 nM (EC50).

The next assay deals with T3, Monkey GLP-1R (Macaca fascicularis, UniProt F8V479).
T3 construct: expressed in transfected cells; host or cells: HEK-293
T3 sequence (F8V479 24-463): as the sequence (P43220 24-463) above, with S112N, F120S, S202G, L205V, L237F, W241R, I249V counted along it
The assay can be described thus: HTRF cAMP assay in HEK-293 cells, monkey GLP-1R. Format: cell-based. The method, then:
Recombinant HEK-293 cells were grown in T175 culture flasks placed at 37° C. to near confluence in medium (DMEM with 10% FBS) and collected in 2 mL vials in cell culture medium containing 10% DMSO in concentrations of 1-5×10^7 cells/mL. Each vial contained 1.8 mL cell suspension. The vials were slowly frozen to −80° C. in an isopropanol chamber, and then transferred to liquid nitrogen for long term storage.
Prior to their use, frozen cells were thawed quickly at 37° C., washed with 20 mL cell buffer (1×HBSS; 20 mM HEPES, 0.1% BSA) and centrifuged for 5 minutes at 900 rpm. Cells were resuspended in assay buffer (cell buffer plus 2 mM IBMX) and adjusted to a cell density of 1×10^6 cells/mL. For measurement, 5 μL cell suspension (final 5×10^3 cells/well) and 5 μL of test compound were added to a well of a 384-well plate, followed by incubation for 30 minutes at room temperature. […] The cAMP content of cells was determined using a kit from Cisbio Corp. (cat. no. 62AM4PEC) based on Homogenous Time Resolved Fluorescence (HTRF).
Regarding B1, the 50% effective concentration (EC50) came to 0.025 nM.

Consider B2, for which the response was half-maximal at 0.0526 nM (EC50).

B3 came in with a concentration giving a half-maximal response (EC50) of 0.013 nM.

Turning to B4, the midpoint of the response, the EC50, lay at 0.0103 nM.

In turn, B5 displayed an EC50 of 0.0402 nM.

As to B6, a half-maximal effect (EC50) was put at 0.0102 nM.

Turning to B7, a half-maximal effect (EC50) was put at 0.0157 nM.

On to B8, for which the EC50 came to 0.00576 nM.

Consider B9, for which the EC50 came to 0.0129 nM.

Consider B10, for which the EC50 worked out at 0.00747 nM.

B11 displayed an EC50 of 0.0974 nM.

The next assay concerns the target T1, Mouse GLP-1R. The assay is described as follows: HTRF cAMP assay in HEK-293 cells, mouse GLP-1R. Format: cell-based.
Molecule B1 came in with an EC50 of 0.128 nM.

Regarding B2, the response was half-maximal at 0.0543 nM (EC50).

For the molecule B3, the EC50 is 0.0117 nM.

B4 showed an EC50 of 0.0135 nM.

On to B5, for which the midpoint of the response, the EC50, lay at 0.043 nM.

With B6, the EC50 amounted to 0.00663 nM.

B7 had an EC50 of 0.0193 nM.

Take B8: the EC50 was found to be 0.00719 nM.

As to B9, the EC50 turned out to be 0.0134 nM.

For B10, the EC50 is 0.00608 nM.

Take B11: the EC50 turned out to be 0.119 nM.

The record behind these values is patent publication US20230250147A1, “GLP-1R AGONISTIC PEPTIDES WITH REDUCED ACTIVITY” (SANOFI, priority 2020, published 2023).
